This is one part of the list.
System: HepG2
Assay: cytotoxicity call (relative viability < 0.9)
Conditions: 10 µM

Row | SMILES | cytotoxicity call
1 | O=c1nc[nH]c2c1ncn2[C@H]1CC[C@@H](CO)O1 | inactive
2 | C[C@@H]1CN([C@@H](C)CO)C(=O)c2cc(NS(=O)(=O)c3cn(C)cn3)ccc2O[C@@H]1CN(C)S(=O)(=O)c1ccccc1 | inactive
3 | CC(C)NC(=O)Nc1cccc2c1O[C@H](CN(C)S(=O)(=O)c1cn(C)cn1)[C@H](C)CN([C@H](C)CO)C2=O | inactive
4 | Cc1noc(C)c1NC(=O)Nc1ccc2c(c1)CC(=O)N([C@@H](C)CO)C[C@@H](C)[C@@H](CN(C)C(=O)Nc1ccc(C(F)(F)F)cc1)O2 | inactive
5 | C[C@@H]1CCCCO[C@@H](CN(C)Cc2ccc(C(F)(F)F)cc2)[C@@H](C)CN([C@H](C)CO)C(=O)c2cc(NS(=O)(=O)c3cn(C)cn3)ccc2O1 | inactive
6 | O=C1OCCN1N=Cc1ccc([N+](=O)[O-])o1 | active
7 | Cc1noc(C)c1NC(=O)Nc1ccc2c(c1)C(=O)N([C@@H](C)CO)C[C@H](C)[C@H](CN(C)C(=O)Nc1ccccc1)OCCCC[C@H](C)O2 | inactive
8 | C[C@H]1CN([C@@H](C)CO)C(=O)Cc2cc(NS(=O)(=O)c3cn(C)cn3)ccc2O[C@@H]1CN(C)Cc1ccccc1 | inactive
9 | O=C(O)c1n[nH]c2c1CCC2 | inactive
10 | C(=N\Cc1cccnc1)/c1c2ccccc2cc2ccccc12 | active
11 | COc1ccc(C(=O)Nc2ccc(CN3C(=O)[C@]4(O[C@H](CC(=O)N5Cc6ccccc6C[C@H]5CO)[C@@H]([Si](C)(C)c5ccc(OC)cc5)[C@@H]4C)c4ccccc43)cc2)cc1 | active
12 | C[C@H](CO)N1C[C@H](C)[C@H](CN(C)C(=O)C2CCCCC2)OCCCC[C@H](C)Oc2ccc(NC(=O)Nc3ccc(F)cc3)cc2C1=O | inactive
13 | C[C@@H]1CN([C@H](C)CO)C(=O)c2cc(NC(=O)Nc3ccc(C(F)(F)F)cc3)ccc2O[C@@H](C)CCCCO[C@@H]1CN(C)C(=O)C1CCCCC1 | active
14 | C[C@H](CO)N1C[C@H](C)[C@@H](CN(C)Cc2ccc3c(c2)OCO3)OCCCC[C@H](C)Oc2ccc(NC(=O)Nc3ccc(F)cc3)cc2C1=O | active
15 | COc1ccc(CN(C)C[C@H]2Oc3ccc(NS(=O)(=O)c4cn(C)cn4)cc3CC(=O)N([C@H](C)CO)C[C@@H]2C)cc1 | inactive
16 | COc1cccc(C(=O)Nc2ccc3c(c2)C(=O)N(C)[C@H]2CC[C@H](CC(=O)NCC4CC4)O[C@H]2CO3)c1 | inactive
17 | Cc1noc(C)c1NC(=O)Nc1ccc2c(c1)CC(=O)N([C@@H](C)CO)C[C@H](C)[C@@H](CN(C)CC1CC1)O2 | inactive
18 | CN1C(=O)c2cc(NC(=O)C3CCC3)ccc2OC[C@@H]2O[C@H](CC(=O)NCCc3ccncc3)CC[C@@H]21 | inactive
19 | C=CCC[C@@H](Cc1ccc(F)cc1)C(=O)OC[C@@H](Cc1c[nH]c2ccccc12)NC(=O)[C@@H](CC=C)CC(=O)N(CCO)Cc1ccccc1 | active
20 | C[C@@H]1CN([C@@H](C)CO)C(=O)c2cccc(NC(=O)Nc3ccc(C(F)(F)F)cc3)c2O[C@H]1CN(C)Cc1ccc(C(=O)O)cc1 | inactive
21 | O=C(C[C@@H]1C[C@H]2c3cc(NS(=O)(=O)c4ccc(F)cc4)ccc3O[C@H]2[C@@H](CO)O1)NCc1ccccc1F | inactive
22 | N[C@@H](Cc1cc(I)c(Oc2ccc(O)c(I)c2)c(I)c1)C(=O)O | inactive
23 | CCN1CCN(c2ccc(Nc3cc(N(C)C(=O)Nc4c(Cl)c(OC)cc(OC)c4Cl)ncn3)cc2)CC1 | active
24 | COCCN1C(=O)C[C@@H]2[C@@H]1CCN2S(=O)(=O)c1cn(C)cn1 | inactive
25 | C[C@@H]1CN([C@H](C)CO)C(=O)c2cc(NC(=O)Nc3ccc(C(F)(F)F)cc3)ccc2O[C@@H](C)CCCCO[C@H]1CN(C)Cc1ccc(C(=O)O)cc1 | inactive
26 | COc1ccc([C@H]([C@H](Cc2ccccc2)OC(C)=O)N(CC#C[C@@H](O[Si](c2ccccc2)(c2ccccc2)C(C)(C)C)c2ccccc2)[C@@H](Cc2ccccc2)C(OC)OC)cc1 | inactive
27 | O=C(O)[C@H](O)c1ccc(F)cc1 | inactive
28 | CCCN(C)C[C@@H]1OCCCC[C@H](C)Oc2ccc(NC(=O)Cc3ccccc3)cc2C(=O)N([C@@H](C)CO)C[C@@H]1C | inactive
29 | Nc1ccn([C@@H]2O[C@H](CO)[C@H](O)[C@@H]2O)c(=O)n1 | inactive
30 | C[C@@H]1CN([C@H](C)CO)C(=O)c2cccc(NS(=O)(=O)c3ccc(F)cc3)c2O[C@H]1CN(C)C(=O)Nc1cccc2ccccc12 | inactive
